In assay [1] the test system is HSkMC (human skeletal muscle cells). Briefly: cytotoxicity call (relative viability < 0.9). Particulars: 10 µM.
Assay [2] relates to HepG2. Briefly: cytotoxicity call (relative viability < 0.9). Particulars: 10 µM.
Assay [3] has as its system S. aureus RN4220. Briefly: growth inhibition call (relative growth <= 0.2). Particulars: 50 µM.

Each structure is given as a SMILES string. The list shows a part of the results.

As for `CC/N=c1\sc(C(=O)OC)cc(=O)n1CC`, the cytotoxicity call in assay [1] and in assay [2] was “inactive” each time. The growth inhibition call in assay [3] was “inactive”.
Regarding `C[C@@H]1CCCCO[C@@H](CN(C)Cc2ccc(Cl)c(Cl)c2)[C@H](C)CN([C@@H](C)CO)C(=O)c2cc(NC(=O)Nc3ccccc3)ccc2O1`, the cytotoxicity call in assay [1] and in assay [2] was “inactive” each time. For the same molecule, the growth inhibition call in assay [3] was “inactive”.
With `C[C@H]1CN([C@@H](C)CO)C(=O)c2cc(NC(=O)Nc3ccc(C(F)(F)F)cc3)ccc2O[C@H]1CN(C)C(=O)Nc1ccc(C(F)(F)F)cc1`, the cytotoxicity call in assay [1] and in assay [2] was “inactive” each time. Further, in assay [3], the growth inhibition call is “inactive”.
Consider `C[C@H]1CN([C@@H](C)CO)C(=O)c2cc(NC(=O)CCCN(C)C)ccc2O[C@H]1CN(C)C(=O)Nc1ccccc1`, for which the cytotoxicity call in assay [1] and in assay [2] was “inactive” throughout. Also, the growth inhibition call in assay [3] was “inactive”.
With `C[C@@H]1CCCCO[C@H](CN(C)C(=O)Nc2ccc(C(F)(F)F)cc2)[C@H](C)CN([C@H](C)CO)C(=O)c2cc(NC(=O)CCC(F)(F)F)ccc2O1`, the cytotoxicity call in assay [1] and in assay [2] was “inactive” in each case. In addition, the growth inhibition call in assay [3] was “inactive”.
On to `CCNC(=O)[C@@H]1[C@@H](CO)[C@@H]2Cn3c(ccc(C4=CCCC4)c3=O)[C@H]1N2S(=O)(=O)c1cn(C)cn1`, for which the cytotoxicity call in assay [1] and in assay [2] was “inactive” throughout. Further, the growth inhibition call in assay [3] is “inactive”.
`C[C@H]1CN([C@@H](C)CO)C(=O)Cc2cc(NC(=O)c3ccncc3)ccc2O[C@H]1CN(C)S(=O)(=O)c1ccc(F)cc1`: the cytotoxicity call in assay [1] and in assay [2] was “inactive” throughout. The growth inhibition call in assay [3] was “inactive”.
On to `O=C(CCCCCC(=O)Nc1ccccc1O)N/N=C/C[P+](c1ccccc1)(c1ccccc1)c1ccccc1`, for which the cytotoxicity call in assay [1] and in assay [2] was “inactive” throughout. Besides, in assay [3], the growth inhibition call was “inactive”.
Turning to `C[C@]1(CC(=O)O)C(=O)N=C2C=CC=CN21`, the cytotoxicity call in assay [1] and in assay [2] was “inactive” each time. For the same molecule, the growth inhibition call in assay [3] is “inactive”.
`C[C@@H]1CN([C@@H](C)CO)C(=O)c2cccc(NS(=O)(=O)c3ccc(Cl)cc3)c2O[C@@H]1CN(C)Cc1ccc(Oc2ccccc2)cc1`: the cytotoxicity call in assay [1] and in assay [2] was “inactive” each time. For the same molecule, in assay [3], the growth inhibition call is “inactive”.
Take `CC(C)CN(C[C@@H](OP(=O)(O)O)[C@H](Cc1ccccc1)NC(=O)O[C@H]1CCOC1)S(=O)(=O)c1ccc(N)cc1`: the cytotoxicity call in assay [1] and in assay [2] was “inactive” each time. For the same molecule, the growth inhibition call in assay [3] was “inactive”.
Regarding `C[C@@H]1CN([C@@H](C)CO)C(=O)c2cc(NC(=O)Cn3cnnn3)ccc2O[C@H]1CN(C)Cc1ccc(Oc2ccccc2)cc1`, the cytotoxicity call in assay [1] and in assay [2] was “inactive” throughout. In addition, the growth inhibition call in assay [3] was “inactive”.
In the case of `COCCN1CCO[C@@H]2CN(Cc3cnn(C)c3)C[C@@H]21`, the cytotoxicity call in assay [1] and in assay [2] was “inactive” throughout. The growth inhibition call in assay [3] is “inactive”.
In the case of `CC[C@@H](C)C(=O)O[C@H]1[C@H](OC(=O)CC(C)C)O[C@H](CO)[C@@H](O)[C@@H]1O`, the cytotoxicity call in assay [1] and in assay [2] was “inactive” in each case. In addition, the growth inhibition call in assay [3] is “inactive”.
Regarding `Cc1noc(C)c1NC(=O)Nc1ccc2c(c1)C(=O)N([C@H](C)CO)C[C@@H](C)[C@H](CN(C)CC1CC1)OCCCC[C@@H](C)O2`, the cytotoxicity call in assay [1] and in assay [2] was “inactive” each time. In addition, the growth inhibition call in assay [3] is “inactive”.
Regarding `Cc1noc(C)c1NC(=O)N(C)C[C@H]1Oc2ccc(NC(=O)Cn3cnnn3)cc2C(=O)N([C@@H](C)CO)C[C@H]1C`, the cytotoxicity call in assay [1] and in assay [2] was “inactive” in each case. The growth inhibition call in assay [3] was “inactive”.
Take `COc1ccc(NC(=O)Nc2ccc3c(c2)C(=O)N([C@@H](C)CO)C[C@H](C)[C@@H](CN(C)Cc2ccc(C(F)(F)F)cc2)O3)cc1`: the cytotoxicity call in assay [1] is “inactive”. In assay [2], the cytotoxicity call was “active”. Also, the growth inhibition call in assay [3] was “inactive”.
`C[C@H]1CN([C@@H](C)CO)C(=O)c2cc(NC(=O)Nc3ccc(C(F)(F)F)cc3)ccc2O[C@H]1CN(C)S(=O)(=O)c1ccc(F)cc1`: in assay [1], the cytotoxicity call is “inactive”. The cytotoxicity call in assay [2] was “active”. For the same molecule, the growth inhibition call in assay [3] was “inactive”.
`c1ccc(COCc2ccccc2)cc1`: the cytotoxicity call in assay [1] and in assay [2] was “inactive” each time. Moreover, in assay [3], the growth inhibition call was “inactive”.
With `NC1CCSCC1`, the cytotoxicity call in assay [1] and in assay [2] was “inactive” each time. Moreover, the growth inhibition call in assay [3] was “inactive”.
Regarding `Cc1onc(C(=O)N2CCOCC2)c1[N+](=O)[O-]`, the cytotoxicity call in assay [1] and in assay [2] was “inactive” throughout. In addition, the growth inhibition call in assay [3] is “inactive”.
In the case of `CN1CCN(C(=O)C[C@H]2CC[C@H]3[C@@H](COc4ccc(NC(=O)c5cccs5)cc4C(=O)N3C)O2)CC1`, the cytotoxicity call in assay [1] and in assay [2] was “inactive” each time. Besides, the growth inhibition call in assay [3] was “inactive”.
For the molecule `C[C@@H]1CN([C@@H](C)CO)C(=O)Cc2cc(NS(=O)(=O)c3cn(C)cn3)ccc2O[C@H]1CN(C)Cc1ccc(C(=O)Nc2ccccc2N)cc1`, the cytotoxicity call in assay [1] and in assay [2] was “inactive” each time. Further, the growth inhibition call in assay [3] was “inactive”.
Consider `CCC(=O)c1ccc(Cl)s1`, for which the cytotoxicity call in assay [1] and in assay [2] was “inactive” each time. In assay [3], the growth inhibition call is “inactive”.
Consider `O=C(O)/C=C/C(=O)Nc1nccs1`, for which the cytotoxicity call in assay [1] and in assay [2] was “inactive” throughout. Further, the growth inhibition call in assay [3] is “inactive”.
Regarding `N=C(N)SCCN1C(=O)c2ccccc2C1=O`, the cytotoxicity call in assay [1] and in assay [2] was “inactive” each time. Besides, in assay [3], the growth inhibition call is “inactive”.
Take `C[C@@H]1CN([C@H](C)CO)C(=O)Cc2cc(NS(=O)(=O)c3ccc(Cl)cc3)ccc2O[C@H]1CN(C)C(=O)Nc1cccc2ccccc12`: the cytotoxicity call in assay [1] and in assay [2] was “inactive” throughout. For the same molecule, the growth inhibition call in assay [3] was “inactive”.
Turning to `C[C@@H]1CN([C@H](C)CO)C(=O)c2cc(NC(=O)Nc3ccc(F)cc3)ccc2O[C@H]1CN(C)Cc1ccc(Cl)c(Cl)c1`, the cytotoxicity call in assay [1] and in assay [2] was “inactive” each time. In assay [3], the growth inhibition call is “inactive”.
As for `COc1ccc(CN(C)C[C@H]2Oc3ccc(NC(=O)Cn4cnnn4)cc3C(=O)N([C@H](C)CO)C[C@H]2C)cc1`, the cytotoxicity call in assay [1] and in assay [2] was “inactive” throughout. Also, the growth inhibition call in assay [3] was “inactive”.
As to `C[C@H]1CN([C@@H](C)CO)C(=O)c2cc(C#CC3CCCCC3)cnc2O[C@H]1CN(C)C(=O)Cc1ccccn1`, the cytotoxicity call in assay [1] and in assay [2] was “inactive” throughout. Also, the growth inhibition call in assay [3] is “inactive”.

These data come from the antibiotic and cytotoxicity screens of Wong et al. (2023).
